# Reference: the supplement of paper PMC8728848
# The other results are listed elsewhere or left out.
# B1: Thrombomodulin (Mus musculus) (protein)
# chain: ALAKLQPTGSQCVEHECFALFQGPATFLDASQACQRLQGHLMTVRSSVAADVISLLLSQSSMDLGPWIGLQLPQGCDDPVHLGPLRGFQWVTGDNHTSYSRWARPNDQTAPLCGPLCVTVSTATEAAPGEPAWEEKPCETETQGFLCEFYFTASC
# How the values were obtained:
# Experiment in all cases: glycan array binding signal (z-score within array); higher = stronger binding
# Conditions in all cases: glycan notation: IUPAC condensed, linker removed
# [1] = molecular target: Neu5Ac(a2-3)Gal(b1-3)GalNAc
# Procedure, shortened: (§1)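 Negative Z-scores can be read as non-binding. The Z-score is calculated within each array and then averaged across arrays of one protein sequence at different concentrations or buffers and across linkers. Arrays, 3228 in all, were curated from the Consortium for Functional Glycomics database and kept only where the protein sequence was available.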
# [2] = molecular target: Neu5Ac(a2-3)Gal(b1-3)GalNAc(b1-3)Gal(a1-4)Gal(b1-4)Glc
# Procedure, shortened: as §1
# [3] = molecular target: Neu5Ac(a2-3)Gal(b1-3)GalNAc(b1-4)[Neu5Ac(a2-3)]Gal(b1-4)Glc
# Procedure, shortened: as §1
# [4] = molecular target: Neu5Ac(a2-3)Gal(b1-3)GalNAc(b1-4)[Neu5Ac(a2-8)Neu5Ac(a2-3)]Gal(b1-4)Glc
# Procedure, shortened: as §1
# [5] = molecular target: Neu5Ac(a2-3)Gal(b1-3)GalNAc6S
# Procedure, shortened: as §1
# [6] = molecular target: Neu5Ac(a2-3)Gal(b1-3)GlcNAc
# Procedure, shortened: as §1
# [7] = molecular target: Neu5Ac(a2-3)Gal(b1-3)GlcNAc(b1-2)Man
# Procedure, shortened: as §1
# [8] = molecular target: Neu5Ac(a2-3)Gal(b1-3)GlcNAc(b1-2)Man(a1-3)[GlcNAc(b1-4)][Neu5Ac(a2-3)Gal(b1-3)GlcNAc(b1-2)Man(a1-6)]Man(b1-4)GlcNAc(b1-4)GlcNAc
# Procedure, shortened: as §1
# [9] = molecular target: Neu5Ac(a2-3)Gal(b1-3)GlcNAc(b1-2)Man(a1-3)[Neu5Ac(a2-3)Gal(b1-3)GlcNAc(b1-2)Man(a1-6)]Man(b1-4)GlcNAc(b1-4)GlcNAc
# Procedure, shortened: as §1
# [10] = molecular target: Neu5Ac(a2-3)Gal(b1-3)GlcNAc(b1-2)[Neu5Ac(a2-3)Gal(b1-3)GlcNAc(b1-4)]Man(a1-6)[Neu5Ac(a2-3)Gal(b1-3)GlcNAc(b1-2)Man(a1-3)]Man(b1-4)GlcNAc(b1-4)GlcNAc
# Procedure, shortened: as §1
# [11] = molecular target: Neu5Ac(a2-3)Gal(b1-3)GlcNAc(b1-3)Gal(b1-3)GlcNAc
# Procedure, shortened: as §1
# [12] = molecular target: Neu5Ac(a2-3)Gal(b1-3)GlcNAc(b1-3)Gal(b1-4)GlcNAc
# Procedure, shortened: as §1
# [13] = molecular target: Neu5Ac(a2-3)Gal(b1-3)GlcNAc(b1-3)GalNAc
# Procedure, shortened: as §1
# [14] = molecular target: Neu5Ac(a2-3)Gal(b1-3)GlcNAc(b1-4)Gal(b1-4)Glc
# Procedure, shortened: as §1
# [15] = molecular target: Neu5Ac(a2-3)Gal(b1-3)GlcNAc(b1-6)GalNAc
# Procedure, shortened: as §1
# [16] = molecular target: Neu5Ac(a2-3)Gal(b1-3)GlcNAc6S
# Procedure, shortened: as §1
# [17] = molecular target: Neu5Ac(a2-3)Gal(b1-3)[Fuc(a1-4)]GlcNAc
# Procedure, shortened: as §1
# [18] = molecular target: Neu5Ac(a2-3)Gal(b1-3)[Fuc(a1-4)]GlcNAc(b1-3)Gal(b1-3)[Fuc(a1-4)]GlcNAc
# Procedure, shortened: as §1
# [19] = molecular target: Neu5Ac(a2-3)Gal(b1-3)[Fuc(a1-4)]GlcNAc(b1-3)Gal(b1-4)[Fuc(a1-3)]GlcNAc
# Procedure, shortened: as §1
# [20] = molecular target: Neu5Ac(a2-3)Gal(b1-3)[GlcNAc(b1-6)]GalNAc
# Procedure, shortened: as §1
# [21] = molecular target: Neu5Ac(a2-3)Gal(b1-3)[Neu5Ac(a2-6)]GalNAc
# Procedure, shortened: as §1
# [22] = molecular target: Neu5Ac(a2-3)Gal(b1-3)[Neu5Ac(a2-6)]GlcNAc(b1-3)[Fuc(a1-3)[Gal(b1-4)]GlcNAc(b1-6)]Gal(b1-4)Glc
# Procedure, shortened: as §1
# [23] = molecular target: Neu5Ac(a2-3)Gal(b1-3)]Neu5Ac(a2-3)Gal(b1-4)]GlcNAc
# Procedure, shortened: as §1
# [24] = molecular target: Neu5Ac(a2-3)Gal(b1-4)Glc
# Procedure, shortened: as §1
# [25] = molecular target: Neu5Ac(a2-3)Gal(b1-4)GlcNAc
# Procedure, shortened: as §1
# [26] = molecular target: Neu5Ac(a2-3)Gal(b1-4)GlcNAc(b1-2)Man
# Procedure, shortened: as §1
# [27] = molecular target: Neu5Ac(a2-3)Gal(b1-4)GlcNAc(b1-2)Man(a1-3)[GlcNAc(b1-4)][Neu5Ac(a2-3)Gal(b1-4)GlcNAc(b1-2)Man(a1-6)]Man(b1-4)GlcNAc(b1-4)GlcNAc
# Procedure, shortened: as §1
# [28] = molecular target: Neu5Ac(a2-3)Gal(b1-4)GlcNAc(b1-2)Man(a1-3)[Neu5Ac(a2-3)Gal(b1-4)GlcNAc(b1-2)Man(a1-6)]Man(b1-4)GlcNAc(b1-4)GlcNAc
# Procedure, shortened: as §1
# [29] = molecular target: Neu5Ac(a2-3)Gal(b1-4)GlcNAc(b1-2)Man(a1-3)[Neu5Ac(a2-3)Gal(b1-4)GlcNAc(b1-2)Man(a1-6)]Man(b1-4)GlcNAc(b1-4)[Fuc(a1-6)]GlcNAc
# Procedure, shortened: as §1
# [30] = molecular target: Neu5Ac(a2-3)Gal(b1-4)GlcNAc(b1-2)Man(a1-3)[Neu5Ac(a2-6)Gal(b1-4)GlcNAc(b1-2)Man(a1-6)]Man(b1-4)GlcNAc(b1-4)GlcNAc
# Procedure, shortened: as §1
# [31] = molecular target: Neu5Ac(a2-3)Gal(b1-4)GlcNAc(b1-2)[Neu5Ac(a2-3)Gal(b1-4)GlcNAc(b1-4)]Man(a1-3)[GlcNAc(b1-4)][Neu5Ac(a2-3)Gal(b1-4)GlcNAc(b1-2)[Neu5Ac(a2-3)Gal(b1-4)GlcNAc(b1-6)]Man(a1-6)]Man(b1-4)GlcNAc(b1-4)GlcNAc
# Procedure, shortened: as §1
# [32] = molecular target: Neu5Ac(a2-3)Gal(b1-4)GlcNAc(b1-2)[Neu5Ac(a2-3)Gal(b1-4)GlcNAc(b1-4)]Man(a1-3)[GlcNAc(b1-4)][Neu5Ac(a2-3)Gal(b1-4)GlcNAc(b1-4)Man(a1-6)]Man(b1-4)GlcNAc(b1-4)GlcNAc
# Procedure, shortened: as §1
# [33] = molecular target: Neu5Ac(a2-3)Gal(b1-4)GlcNAc(b1-2)[Neu5Ac(a2-3)Gal(b1-4)GlcNAc(b1-6)]Man(a1-6)[Neu5Ac(a2-3)Gal(b1-4)GlcNAc(b1-2)Man(a1-3)][GlcNAc(b1-4)]Man(b1-4)GlcNAc(b1-4)GlcNAc
# Procedure, shortened: as §1
# [34] = molecular target: Neu5Ac(a2-3)Gal(b1-4)GlcNAc(b1-3)Gal
# Procedure, shortened: as §1
# [35] = molecular target: Neu5Ac(a2-3)Gal(b1-4)GlcNAc(b1-3)Gal(b1-3)GlcNAc
# Procedure, shortened: as §1
# [36] = molecular target: Neu5Ac(a2-3)Gal(b1-4)GlcNAc(b1-3)Gal(b1-4)GlcNAc
# Procedure, shortened: as §1
# [37] = molecular target: Neu5Ac(a2-3)Gal(b1-4)GlcNAc(b1-3)Gal(b1-4)GlcNAc(b1-2)Man(a1-3)[Neu5Ac(a2-3)Gal(b1-4)GlcNAc(b1-3)Gal(b1-4)GlcNAc(b1-2)Man(a1-6)]Man(b1-4)GlcNAc(b1-4)GlcNAc
# Procedure, shortened: as §1
# [38] = molecular target: Neu5Ac(a2-3)Gal(b1-4)GlcNAc(b1-3)Gal(b1-4)GlcNAc(b1-3)Gal(b1-4)GlcNAc
# Procedure, shortened: as §1
# [39] = molecular target: Neu5Ac(a2-3)Gal(b1-4)GlcNAc(b1-3)Gal(b1-4)GlcNAc(b1-3)Gal(b1-4)GlcNAc(b1-2)Man(a1-3)[Neu5Ac(a2-3)Gal(b1-4)GlcNAc(b1-3)Gal(b1-4)GlcNAc(b1-3)Gal(b1-4)GlcNAc(b1-2)Man(a1-6)]GalNAc
# Procedure, shortened: as §1
# [40] = molecular target: Neu5Ac(a2-3)Gal(b1-4)GlcNAc(b1-3)Gal(b1-4)GlcNAc(b1-3)GalNAc
# Procedure, shortened: as §1
# [41] = molecular target: Neu5Ac(a2-3)Gal(b1-4)GlcNAc(b1-3)Gal(b1-4)GlcNAc(b1-3)[Neu5Ac(a2-3)Gal(b1-4)GlcNAc(b1-3)Gal(b1-4)GlcNAc(b1-6)]GalNAc
# Procedure, shortened: as §1
# [42] = molecular target: Neu5Ac(a2-3)Gal(b1-4)GlcNAc(b1-3)Gal(b1-4)GlcNAc(b1-6)[Gal(b1-3)]GalNAc
# Procedure, shortened: as §1
# [43] = molecular target: Neu5Ac(a2-3)Gal(b1-4)GlcNAc(b1-3)Gal(b1-4)[Fuc(a1-3)]GlcNAc
# Procedure, shortened: as §1
# [44] = molecular target: Neu5Ac(a2-3)Gal(b1-4)GlcNAc(b1-3)GalNAc
# Procedure, shortened: as §1
# [45] = molecular target: Neu5Ac(a2-3)Gal(b1-4)GlcNAc(b1-3)[Neu5Ac(a2-3)Gal(b1-4)GlcNAc(b1-6)]GalNAc
# Procedure, shortened: as §1
binder,measurement,setting,value
B1,glycan array binding signal (z-score),[1],1.07
same,glycan array binding signal (z-score),[2],-0.19
same,glycan array binding signal (z-score),[3],-0.4
same,glycan array binding signal (z-score),[4],-0.298
same,glycan array binding signal (z-score),[5],0.053
same,glycan array binding signal (z-score),[6],-0.018
same,glycan array binding signal (z-score),[7],-0.394
same,glycan array binding signal (z-score),[8],-0.095
same,glycan array binding signal (z-score),[9],0.051
same,glycan array binding signal (z-score),[10],0.106
same,glycan array binding signal (z-score),[11],-0.256
same,glycan array binding signal (z-score),[12],-0.414
same,glycan array binding signal (z-score),[13],-0.354
same,glycan array binding signal (z-score),[14],-0.344
same,glycan array binding signal (z-score),[15],0.614
same,glycan array binding signal (z-score),[16],0.198
same,glycan array binding signal (z-score),[17],0.068
same,glycan array binding signal (z-score),[18],-0.3
same,glycan array binding signal (z-score),[19],0.174
same,glycan array binding signal (z-score),[20],-0.106
same,glycan array binding signal (z-score),[21],-0.197
same,glycan array binding signal (z-score),[22],0.263
same,glycan array binding signal (z-score),[23],-0.012
same,glycan array binding signal (z-score),[24],2.91
same,glycan array binding signal (z-score),[25],-0.09
same,glycan array binding signal (z-score),[26],-0.06
same,glycan array binding signal (z-score),[27],-0.327
same,glycan array binding signal (z-score),[28],-0.348
same,glycan array binding signal (z-score),[29],-0.085
same,glycan array binding signal (z-score),[30],-0.067
same,glycan array binding signal (z-score),[31],-0.052
same,glycan array binding signal (z-score),[32],-0.215
same,glycan array binding signal (z-score),[33],-0.026
same,glycan array binding signal (z-score),[34],-0.45
same,glycan array binding signal (z-score),[35],-0.184
same,glycan array binding signal (z-score),[36],-0.369
same,glycan array binding signal (z-score),[37],-0.353
same,glycan array binding signal (z-score),[38],-0.135
same,glycan array binding signal (z-score),[39],-0.222
same,glycan array binding signal (z-score),[40],-0.263
same,glycan array binding signal (z-score),[41],-0.139
same,glycan array binding signal (z-score),[42],-0.192
same,glycan array binding signal (z-score),[43],-0.359
same,glycan array binding signal (z-score),[44],-0.202
same,glycan array binding signal (z-score),[45],0.096
